Experimental data taken from the supplement of paper PMC3334620.
Over roughly 33,000 sequences, “E-score (-0.5 to 0.5)” has its median near -0.04; the highest 2% begin near 0.36. Some of the results follow.

The sequences below were run against T1, Hmlalpha2 (UniProt P0CY09) (assay: PBM E-score (8-mer binding enrichment) (E-score (-0.5 to 0.5)); higher = stronger / more preferred TF binding; most listed sequences are background and not binding sites). Conditions: protein concentration: 200 nM; construct: GST-full length.
T1 sequence: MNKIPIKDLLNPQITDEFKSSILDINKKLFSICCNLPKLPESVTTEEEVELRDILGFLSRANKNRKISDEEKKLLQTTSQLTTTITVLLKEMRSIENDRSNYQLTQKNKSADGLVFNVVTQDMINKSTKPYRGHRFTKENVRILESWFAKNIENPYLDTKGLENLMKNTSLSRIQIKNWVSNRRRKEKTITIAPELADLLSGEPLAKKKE
Summary of the method: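 Bound GST-tagged yeast transcription factors, applied at about 100-200 nM to double-stranded universal all-10-mer Agilent arrays, were detected with fluorescent anti-GST. Scans were normalised with masliner. A modified Wilcoxon-Mann-Whitney statistic, the E-score, was assigned to each ungapped eight-base word pooled with its reverse complement by the Universal PBM Analysis Suite.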

Sequence	PBM E-score
GGATAACC	-0.122
CTCGAGAG	-0.106
CGTTTCCC	-0.141
CCTACTCA	-0.25
CGCACAGA	0.0312
CGCGACAG	-0.139
CTCCGTAA	-0.017
CCCATCTC	-0.341
AAGCGGAG	-0.065
CCCTTGAC	-0.16
CAGGACTA	-0.175
CGATTTCA	0.138
CAACTATG	0.132
CGTTTCCA	-0.0334
CTCGTTTA	0.19
AAGATCTT	-0.112
CTCTGCAG	-0.217
CTTTTTAA	0.126
CGGCGTCA	-0.0823
ACAAGCGG	0.201
ACCGTAAT	-0.0654
GATGTCAC	0.00819
AATAGACC	-0.0949
ATCATGAC	0.183
ATGAGAAC	0.144

Sequence	PBM E-score
CCAGCCGA	-0.358
ACTATCAA	0.0674
CGGAACTC	-0.222
CACCGTAC	-0.0899
AAATCCTG	0.0248
CATGCTTA	0.148
TCTAATCA	-0.013
GGATTTTA	0.0587
AAGCGTCT	-0.232
CTACGTAG	0.257
AGGCCTTA	-0.26
CAATGACG	0.0229
TATTATCA	0.168
ATGTAAGC	0.374
CCTAAAGA	-0.207
GTAATCGA	0.346
GAGATTCA	-0.177
TGGAAACA	-0.0534
ACGAACAC	0.259
AGTGGCTA	-0.155
GCTTGAAC	0.129
CCGGCGGA	-0.234
CATCAGAG	-0.119
ACCGATAG	-0.179
TACAAAGA	0.317

Sequence	PBM E-score
CCGGACCG	-0.303
AGCAATCC	-0.192
ACGTTGTA	0.334
GGGACACC	-0.406
CAAGTGCC	-0.159
CTCGGGAC	-0.337
ACGGTGCA	0.063
ACTGGGCG	-0.159
TACTGTGA	-0.124
AGACAGTC	-0.125
AACTGAAG	0.123
TCAAGGCA	-0.18
GCAATGGC	-0.185
AGCCAGAA	-0.103
CCTCGGAG	-0.213
CAGGATAA	-0.021
AGGTCCAA	-0.112
AACGGATT	0.139
CAATATTC	-0.0931
ATGCGGGG	-0.19
CCAGGAAC	-0.16
CTCATTTA	0.0583
CTGATTTC	-0.118
CAGGGCCA	-0.241
ACGATCCT	-0.0378

Sequence	PBM E-score
AACGCTAT	-0.0875
CTCAGCCA	-0.154
TAATAAAA	0.28
CACACCCG	0.0239
GCCAAAAC	-0.0313
CGAATGCG	0.0199
ACTGTCCC	-0.229
AAGAGGGC	-0.143
TAGTCGCA	-0.085
CAAATTAG	0.0737
AAATGTTA	0.33
ATCGACCC	-0.146
GGCTGTAC	-0.108
GGGCTGCA	-0.322
AAGGATGG	-0.0478
GGTAATGA	0.13
AGGTCAAC	0.0659
CCTGGCCA	-0.135
GCTAGAAC	-0.158
ATCGTCGA	-0.093
GATGCGGA	-0.064
CGTCCGCC	-0.185
CCAGATCA	0.236
GGGTGCAC	-0.146
CCTGGAAC	0.0485

Sequence	PBM E-score
ATAATACC	0.0152
GTCTCTCA	-0.0199
AAGCTATG	-0.119
GCACAACA	0.187
TCGCTCCA	-0.0399
ACCACTGC	-0.278
GGTCGCTA	-0.182
CCCCGCGG	-0.175
AGGACGCA	-0.239
GATCGTCA	-0.0403
GGTTTATA	0.101
AAGAGCAG	-0.12
ACTCGGAT	-0.0542
CGCACGAA	0.0855
CAAGTCGA	-0.0869
AGCCCGAA	-0.288
GACTTCAA	-0.131
ACAGCGTG	0.265
ACTTGGTG	-0.198
CCGGTGTC	-0.226
AGAGAACT	-0.0018
CACGTGAC	0.0799
CAATTAGA	0.121
AATAATCA	0.129
CTCTTCAC	-0.0517

Sequence	PBM E-score
CCATCGGC	-0.271
CATCATGG	-0.249
GCTTTTGA	-0.0539
CATTTTAA	0.189
CCGCGATA	-0.00806
AGCTCCAG	-0.311
GCCGGTTA	-0.00182
GCACGAGA	-0.182
TACGACCA	0.0532
AGAGCACA	-0.0359
ACCTATAT	0.132
CCGGTAGA	-0.155
AATCGCTC	-0.278
ACGTGAGT	0.0314
GAAGTATC	-0.00116
ACTGGGAA	-0.0738
ATCTACGA	0.014
AAGTTATG	0.256
CAACCAGG	0.0197
CTTAAGTA	0.0845
CCAATTCA	0.0971
GGTAAATA	0.167
CCTGTACA	0.304
ACGGAGGG	-0.228
CATGTGCA	0.135

Sequence	PBM E-score
AGCATGGC	-0.00608
AGTTACCA	0.117
CGCAAGAC	-0.132
AGGAGACG	-0.201
GCGGGATA	-0.0516
GCCATATA	0.0375
ATACATAA	0.392
CCACACAG	-0.0322
GCTCTGGA	-0.0396
AGCTCCCT	-0.192
AGCGATCC	-0.112
CAGGCATG	0.189
AACGATGT	0.316
CAGCGACG	-0.0401
GCTAGACC	-0.362
CATAGAAA	0.101
GTTACGTA	0.293
ATGCAGGA	0.0208
ATCGCCAG	-0.171
ATAACCAG	0.0636
AAGCGTAG	-0.122
AATGAGAT	0.207
CCAAAGAC	-0.0218
TAAGTCCA	-0.0524
ACACAAGT	0.257

Sequence	PBM E-score
CCAGATGC	-0.0584
ATTCTCTA	-0.0415
GACGCCCC	-0.244
GTAGATAA	0.281
TCCTCCGA	-0.258
ATATCAGA	0.22
CGTGTTTC	0.272
TCGCCGAA	-0.222
ACAAATTA	0.267
ATGGGTCA	-0.103
AGTGCATA	0.1
ATCTCCCC	-0.304
CAACCATC	-0.146
GGTTCGAC	-0.00323
AACGGGCC	-0.181
CAGAGAGC	-0.362
ACTACGCA	0.193
CCATCCCA	-0.295
AATGTGTC	0.0899
TGACACAA	0.267
CGTTCTCA	0.0289
CCCTTAGA	-0.353
AGAATTAC	0.356
GCTAGAAA	0.0549
CCAGACCA	-0.179

Sequence	PBM E-score
CTCACACA	0.114
GAATGTCA	0.0786
ATGGGAGC	-0.138
TAGCCATA	0.0377
ACGCTAGC	-0.137
GATGCGCC	-0.203
AAGAATTG	0.0631
CAACTGGA	-0.282
CTATGCAC	-0.0914
TGAGCCAA	-0.0404
GACACACC	0.0837
ACCCAGTA	-0.0976
AACCGTGG	-0.166
CCGCGCGC	-0.242
CATCCCCA	-0.23
CAAGCGAG	-0.0133
GCATAGAA	-0.0269
AATAGAGA	-0.053
ACGAACGG	0.0877
